The text below walks through data of patent US7772236B2, “Substituted pyrazoles” (Ortho McNeil Pharmaceutical, Inc., priority 2000, dated 2010).

The IC50 is the midpoint of a concentration-inhibition curve.

The target in this test is Recombinant human cathepsin S (CatS) (Homo sapiens, UniProt P25774). The experiment in a line: biochemical.

As to `CC(=O)N1CCc2c(c(-c3ccc(Cl)cc3)nn2CCCN2CCN(c3ccccc3F)CC2)C1` [Example 1, 1-(3-(4-Chloro-phenyl)-1-{3-[4-(2-fluoro-phenyl)-piperazin-1-yl]-propyl}-1,4,6,7-tetrahydro-pyrazolo[4,3-c]pyridin-5-yl)-ethanone], the IC50 was found to be 890 nM.

As for `CC(=O)N1CCc2c(c(-c3ccc(Cl)cc3)nn2CC(O)CN2CCN(c3ccccc3C)CC2)C1` (centres unmarked) [Example 2, 1-{3-(4-Chloro-phenyl)-1-[2-hydroxy-3-(4-o-tolyl-piperazin-1-yl)-propyl]-1,4,6,7-tetrahydro-pyrazolo[4,3-c]pyridin-5-yl}-ethanone], the IC50 was found to be 1220 nM.

On to `COC(CN1CCN(c2ccccc2C)CC1)Cn1nc(-c2ccc(Cl)cc2)c2c1CCN(C(C)=O)C2` (centres unmarked) [Example 3, 1-{3-(4-Chloro-phenyl)-1-[2-methoxy-3-(4-o-tolyl-piperazin-1-yl)-propyl]-1,4,6,7-tetrahydro-pyrazolo[4,3-c]pyridin-5-yl}-ethanone], for which the IC50 came to 840 nM.

On to `CC(=O)N1CCc2c(c(-c3ccc(I)cc3)nn2CC(O)CN2CCN(c3ccccc3O)CC2)C1` (centres unmarked) [Example 4, 1-[1-{2-Hydroxy-3-[4-(2-hydroxy-phenyl)-piperazin-1-yl]-propyl}-3-(4-iodo-phenyl)-1,4,6,7-tetrahydro-pyrazolo[4,3-c]pyridin-5-yl]-ethanone], for which the IC50 was determined as 510 nM.

For the compound `CC(=O)N1CCc2c(c(-c3ccc(C(F)(F)F)cc3)nn2CC(O)CN2CCN(c3ccccc3C)CC2)C1` (centres unmarked) [Example 5, 1-[1-[2-Hydroxy-3-(4-o-tolyl-piperazin-1-yl)-propyl]-3-(4-trifluoromethyl-phenyl)-1,4,6,7-tetrahydro-pyrazolo[4,3-c]pyridin-5-yl]-ethanone], the IC50 worked out at 360 nM.

In the case of `CC(=O)N1CCc2c(c(-c3ccc(C(F)(F)F)cc3)nn2CC(O)CN2CCN(c3ccccc3C#N)CC2)C1` (centres unmarked) [Example 6, 2-(4-{3-[5-Acetyl-3-(4-trifluoromethyl-phenyl)-4,5,6,7-tetrahydro-pyrazolo[4,3-c]pyridin-1-yl]-2-hydroxy-propyl}-piperazin-1-yl)-benzonitrile], the IC50 worked out at 300 nM.

`Cc1ccccc1N1CCN(CC(O)Cn2ccc(-c3ccc(Cl)c(Cl)c3)n2)CC1` (centres unmarked) [Example 7, 1-[3-(3,4-Dichloro-phenyl)-pyrazol-1-yl]-3-(4-o-tolyl-piperazin-1-yl)-propan-2-ol]: the IC50 came to 6600 nM.

As for `CC(=O)N1CCc2c(c(-c3ccc(C(F)(F)F)cc3)nn2CC(CN2CCN(c3ccccc3C)CC2)NCCN2CCNCC2)C1` (centres unmarked) [Example 8, 1-[1-[2-(2-piperazin-1-yl-ethylamino)-3-(4-o-tolyl-piperazin-1-yl)-propyl]-3-(4-trifluoromethyl-phenyl)-1,4,6,7-tetrahydro-pyrazolo[4,3-c]pyridin-5-yl]-ethanone], the IC50 was 890 nM.

For `CC(C)(C)OC(=O)N1CCc2c(c(-c3ccc(I)cc3)nn2CC(O)CN2CCN(c3ccccc3C#N)CC2)C1` (centres unmarked) [Example 9, 1-{3-[4-(2-Cyano-phenyl)-piperazin-1-yl]-2-hydroxy-propyl}-3-(4-iodo-phenyl)-1,4,6,7-tetrahydro-pyrazolo[4,3-c]pyridine-5-carboxylic acid tert-butyl ester], the IC50 stood at 1140 nM.

Regarding `N#Cc1ccccc1N1CCN(CC(O)Cn2nc(-c3ccc(I)cc3)c3c2CCN(C(N)=O)C3)CC1` (centres unmarked) [Example 10, 1-{3-[4-(2-Cyano-phenyl)-piperazin-1-yl]-2-hydroxy-propyl}-3-(4-iodo-phenyl)-1,4,6,7-tetrahydro-pyrazolo[4,3-c]pyridine-5-carboxylic acid amide], the IC50 amounted to 50 nM.

With `N#Cc1ccccc1N1CCN(CC(Cn2nc(-c3ccc(I)cc3)c3c2CCN(C(N)=O)C3)OC(N)=O)CC1` (centres unmarked) [Example 11, Carbamic acid 1-[5-carbamoyl-3-(4-iodo-phenyl)-4,5,6,7-tetrahydro-pyrazolo[4,3-c]pyridin-1-ylmethyl]-2-[4-(2-cyano-phenyl)-piperazin-1-yl]-ethyl ester], the IC50 was found to be 30 nM.

Regarding `CC(=O)N1CCc2c(c(-c3ccc(Cl)c(N)c3)nn2CC(O)CN2CCN(c3ccccc3C)CC2)C1` (centres unmarked) [Example 12, 1-{3-(3-Amino-4-chloro-phenyl)-1-[2-hydroxy-3-(4-o-tolyl-piperazin-1-yl)-propyl]-1,4,6,7-tetrahydro-pyrazolo[4,3-c]pyridin-5-yl}-ethanone], the 50% inhibitory concentration (IC50) amounted to 980 nM.

Turning to `CC(=O)N1CCc2c(c(-c3ccc(Br)cc3)nn2C[C@H](O)CN2CCN(c3cc(Cl)ccc3C)CC2)C1` [Example 13, (R)-1-(3-(4-Bromo-phenyl)-1-{3-[4-(5-chloro-2-methyl-phenyl)-piperazin-1-yl]-2-hydroxy-propyl}-1,4,6,7-tetrahydro-pyrazolo[4,3-c]pyridin-5-yl)-ethanone], the IC50 is 770 nM.

Regarding `CC(=O)N1CCc2c(c(-c3ccc(C(F)(F)F)cc3)nn2CC(F)CN2CCN(c3ccccc3C#N)CC2)C1` (centres unmarked) [Example 14, 2-(4-{3-[5-Acetyl-3-(4-trifluoromethyl-phenyl)-4,5,6,7-tetrahydro-pyrazolo[4,3-c]pyridin-1-yl]-2-fluoro-propyl}-piperazin-1-yl)-benzonitrile], the IC50 is 250 nM.

`COC(=O)C(=O)N1CCc2c(c(-c3ccc(Cl)c(C)c3)nn2CC(O)CN2CCN(c3ccccc3C#N)CC2)C1` (centres unmarked) [Example 15, (3-(4-Chloro-3-methyl-phenyl)-1-{3-[4-(2-cyano-phenyl)-piperazin-1-yl]-2-hydroxy-propyl}-1,4,6,7-tetrahydro-pyrazolo[4,3-c]pyridin-5-yl)-oxo-acetic acid methyl ester]: the IC50 was 120 nM.

As to `CS(=O)(=O)N1CCc2c(c(-c3ccc(C(F)(F)F)cc3)nn2CCCN2CCN(c3ccccc3[N+](=O)[O-])CC2)C1` [Example 16, 5-Methanesulfonyl-1-{3-[4-(2-nitro-phenyl)-piperazin-1-yl]-propyl}-3-(4-trifluoromethyl-phenyl)-4,5,6,7-tetrahydro-1H-pyrazolo[4,3-c]pyridine], the IC50 stood at 60 nM.

As to `CS(=O)(=O)Nc1cccc(Cl)c1N1CCN(CCCn2nc(-c3ccc(C(F)(F)F)cc3)c3c2CCN(S(N)(=O)=O)C3)CC1` [Example 18, 1-{3-[4-(2-Chloro-6-methanesulfonylamino-phenyl)-piperazin-1-yl]-propyl}-3-(4-trifluoromethyl-phenyl)-1,4,6,7-tetrahydro-pyrazolo[4,3-c]pyridine-5-sulfonic acid amide], the IC50 stood at 140 nM.

`CS(=O)(=O)Nc1cccc(Cl)c1N1CCN(CC(O)Cn2nc(-c3ccc(C(F)(F)F)cc3)c3c2CCN(S(C)(=O)=O)C3)CC1` (centres unmarked) [Example 19, N-[3-Chloro-2-(4-{2-hydroxy-3-[5-methanesulfonyl-3-(4-trifluoromethyl-phenyl)-4,5,6,7-tetrahydro-pyrazolo[4,3-c]pyridin-1-yl]-propyl}-piperazin-1-yl)-phenyl]-methanesulfonamide]: the IC50 is 60 nM.

`CS(=O)(=O)N1CCc2c(c(-c3ccc(C(F)(F)F)cc3)nn2CC(O)CN2CCN(c3c([N+](=O)[O-])cccc3[N+](=O)[O-])CC2)C1` (centres unmarked) [Example 20, 1-[4-(2,6-Dinitro-phenyl)-piperazin-1-yl]-3-[5-methanesulfonyl-3-(4-trifluoromethyl-phenyl)-4,5,6,7-tetrahydro-pyrazolo[4,3-c]pyridin-1-yl]-propan-2-ol]: the IC50 is 170 nM.

Regarding `COC(=O)c1cccc(NS(C)(=O)=O)c1N1CCN(CC(O)Cn2nc(-c3ccc(C(F)(F)F)cc3)c3c2CCN(S(C)(=O)=O)C3)CC1` (centres unmarked) [Example 21, 2-(4-{2-Hydroxy-3-[5-methanesulfonyl-3-(4-trifluoromethyl-phenyl)-4,5,6,7-tetrahydro-pyrazolo[4,3-c]pyridin-1-yl]-propyl}-piperazin-1-yl)-3-methanesulfonylamino-benzoic acid methyl ester], the IC50 was found to be 70 nM.

As for `CS(=O)(=O)N1CCc2c(c(-c3ccc(C(F)(F)F)cc3)nn2CCCN2CCN(C3=NS(=O)(=O)c4ccccc43)CC2)C1` [Example 22, 1-{3-[4-(1,1-Dioxo-1H-1λ^6-benzo[d]isothiazol-3-yl)-piperazin-1-yl]-propyl}-5-methanesulfonyl-3-(4-trifluoromethyl-phenyl)-4,5,6,7-tetrahydro-1H-pyrazolo[4,3-c]pyridine], the half-maximal inhibitory concentration (IC50) was determined as 2150 nM.

Consider `CC(=O)N1CCc2c(c(-c3ccc(C(F)(F)F)cc3)nn2CC(O)CN2CCN(c3nc4ccc(Cl)cc4s3)CC2)C1` (centres unmarked) [Example 23, 1-[1-{3-[4-(6-Chloro-benzothiazol-2-yl)-piperazin-1-yl]-2-hydroxy-propyl}-3-(4-trifluoromethyl-phenyl)-1,4,6,7-tetrahydro-pyrazolo[4,3-c]pyridin-5-yl]-ethanone], for which the IC50 turned out to be 1100 nM.

For the compound `CC(=O)N1CCc2c(c(-c3ccc(C(F)(F)F)cc3)nn2CC(O)CN2CCN(c3noc4ccccc34)CC2)C1` (centres unmarked) [Example 24, 1-[1-[3-(4-Benzo[d]isoxazol-3-yl-piperazin-1-yl)-2-hydroxy-propyl]-3-(4-trifluoromethyl-phenyl)-1,4,6,7-tetrahydro-pyrazolo[4,3-c]pyridin-5-yl]-ethanone], the 50% inhibitory concentration (IC50) was found to be 470 nM.

As to `CS(=O)(=O)N1CCc2c(c(-c3ccc(C(F)(F)F)cc3)nn2CC(O)CN2CCN(c3c(N)cccc3Cl)CC2)C1` (centres unmarked) [Example 25, 1-[4-(2-Amino-6-chloro-phenyl)-piperazin-1-yl]-3-[5-methanesulfonyl-3-(4-trifluoromethyl-phenyl)-4,5,6,7-tetrahydro-pyrazolo[4,3-c]pyridin-1-yl]-propan-2-ol], the IC50 stood at 40 nM.

Turning to `CNC(=O)Nc1cccc(Cl)c1N1CCN(CCCn2nc(-c3ccc(C(F)(F)F)cc3)c3c2CCN(S(C)(=O)=O)C3)CC1` [Example 26, 1-[3-Chloro-2-(4-{3-[5-methanesulfonyl-3-(4-trifluoromethyl-phenyl)-4,5,6,7-tetrahydro-pyrazolo[4,3-c]pyridin-1-yl]-propyl}-piperazin-1-yl)-phenyl]-3-methyl-urea], the IC50 is 40 nM.

With `CNC(=O)Nc1cccc(Cl)c1N1CCN(CC(O)Cn2nc(-c3ccc(C(F)(F)F)cc3)c3c2CCN(S(C)(=O)=O)C3)CC1` (centres unmarked) [Example 27, 1-[3-Chloro-2-(4-{2-hydroxy-3-[5-methanesulfonyl-3-(4-trifluoromethyl-phenyl)-4,5,6,7-tetrahydro-pyrazolo[4,3-c]pyridin-1-yl]-propyl}-piperazin-1-yl)-phenyl]-3-methyl-urea], the IC50 was 40 nM.
